The supplement of paper PMC7125110
± gives the standard error. This sample is rich in variants without activity.

B1: glmS ribozyme (parent)
chain: AUAAAAGCGCCAGAACUACAGAAAUGUAGUUGACGAGGAGGAGGUUUAUCGAAUUUUCGGCGGAUGCCUCCAAA

Columns and labels:
Details in all cases: with glucosamine-6-phosphate
glucosamine-6-phosphate [1] = variants of: B1; experiment: self-cleavage kobs at 640 uM GlcN6P; higher = faster cleavage; RNA array
Procedure, shortened: (§1)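 Glucosamine-6-phosphate, from 40 μM to 10 mM in HEPES/KCl/Mg(OAc)2 buffer, was flowed over sequenced MiSeq chips carrying barcoded ribozyme variants transcribed in situ by E. coli RNA polymerase. A hybridised Cy3 probe tracked the variants at 37 °C as tiles were imaged over ~14 h. kobs, kcat and KM were obtained by fitting normalised per-tile medians to exponential decays and then applying weighted Michaelis–Menten fits across concentrations.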

glucosamine-6-phosphate [2] = variants of: B1; experiment: self-cleavage kobs at 160 uM GlcN6P; higher = faster cleavage; RNA array
Procedure, shortened: as §1

glucosamine-6-phosphate [3] = variants of: B1; experiment: self-cleavage kobs at 2500 uM GlcN6P; higher = faster cleavage; RNA array
Procedure, shortened: as §1

glucosamine-6-phosphate [4] = variants of: B1; experiment: self-cleavage kobs at 10000 uM GlcN6P; higher = faster cleavage; RNA array
Procedure, shortened: as §1

Variant | self-cleavage kobs at 640 uM GlcN6P (glucosamine-6-phosphate [1]) | self-cleavage kobs at 160 uM GlcN6P (glucosamine-6-phosphate [2]) | self-cleavage kobs at 2500 uM GlcN6P (glucosamine-6-phosphate [3]) | self-cleavage kobs at 10000 uM GlcN6P (glucosamine-6-phosphate [4])
AUAAAAGCGCCAGAACUACAGAAAUGUAGUUGACGAGGAGGAGGUUUAUCGUAUUUUCGGCGGGUUCCUCCAAA [A52U A64G G66U] | < 1e-05 s⁻¹ | < 1e-05 s⁻¹ |  | 
AUAAAAGCGCCAGAACUACAGAAAUGUAGUUGACGAGGAGGAGGUUUAUCGUAUUUUCGGUGGAUGUCUCCAAA [A52U C61U C67U] | < 1e-05 s⁻¹ | < 1e-05 s⁻¹ | < 1e-05 s⁻¹ | 
AUAAAAGCGCCAGAACUACAGAAAUGUAGUUGACGAGGAGGAGGUUUAUCGUAUUUUCGGCGGAUGCCUUCAAA [A52U C70U] | 0.000122 ± 2e-05 s⁻¹ |  | 0.000228 ± 3.4e-05 s⁻¹ | 0.000483 ± 4.7e-05 s⁻¹
AUAAAAGCGCCAGAACUACAGAAAUGUAGUUGACGAGGAGGAGGUUUAUCGUAUUUUCGUCGGGUGCCUCUAAA [A52U G60U A64G C71U] | < 1e-05 s⁻¹ | < 1e-05 s⁻¹ | < 1e-05 s⁻¹ | < 1e-05 s⁻¹
AUAAAAGCGCCAGAACUACAGAAAUGUAGUUGACGAGGAGGAGGUUUAUCGACUUUUCGGCGGAUGCUUCCAAA [A53C C68U] | 3.67e-05 ± 7.7e-06 s⁻¹ |  | 8.77e-05 ± 1e-05 s⁻¹ | 8.67e-05 ± 5.3e-06 s⁻¹
AUAAAAGCGCCAGAACUACAGAAAUGUAGUUGACGAGGAGGAGGUUUAUCGACUUUUCGGCGGAUCCCUCCAAA [A53C G66C] | 9.27e-05 ± 1.9e-05 s⁻¹ |  | 0.00034 ± 0.00011 s⁻¹ | 0.000368 ± 6.5e-05 s⁻¹
AUAAAAGCGCCAGAACUACAGAAAUGUAGUUGACGAGGAGGAGGUUUAUCGACCUUUCGUCGGAUGCCUCCAAA [A53C U54C G60U] | < 1e-05 s⁻¹ |  | < 1e-05 s⁻¹ | 
AUAAAAGCGCCAGAACUACAGAAAUGUAGUUGACGAGGAGGAGGUUUAUCGACUUUGCGGCGGAUGCCUCCAAA [A53C U57G] | 9.98e-05 ± 1.6e-05 s⁻¹ |  | 0.000143 ± 1.9e-05 s⁻¹ | 0.000339 ± 4.6e-05 s⁻¹
AUAAAAGCGCCAGAACUACAGAAAUGUAGUUGACGAGGAGGAGGUUUAUCGAGUUUUCGGCGGUUGCCGCCAAA [A53G A64U U69G] | 0.000772 ± 0.00022 s⁻¹ | 0.000191 ± 6.9e-05 s⁻¹ | 0.000517 ± 0.00019 s⁻¹ | 
AUAAAAGCGCCAGAACUACAGAAAUGUAGUUGACGAGGAGGAGGUUUAUCGAGUUUUUGGCGGAGGCCUCCAAA [A53G C58U U65G] | < 1e-05 s⁻¹ |  |  | 
AUAAAAGCGCCAGAACUACAGAAAUGUAGUUGACGAGGAGGAGGUUUAUCGAGUUUUCGGCGAAUGCCUCCAAA [A53G G63A] | < 1e-05 s⁻¹ |  |  | < 1e-05 s⁻¹
AUAAAAGCGCCAGAACUACAGAAAUGUAGUUGACGAGGAGGAGGUUUAUCGAUUUUUCGGGGGAUGCCUCCAAA [A53U C61G] | < 1e-05 s⁻¹ |  | < 1e-05 s⁻¹ | < 1e-05 s⁻¹
AUAAAAGCGCCAGAACUACAGAAAUGUAGUUGACGAGGAGGAGGUUUAUCGAUUUUUCGGCGGAUGCAUCCAAA [A53U C68A] | 6.67e-05 ± 8.3e-06 s⁻¹ | 3.62e-05 ± 1e-05 s⁻¹ | 6.54e-05 ± 9.8e-06 s⁻¹ | 
AUAAAAGCGCCAGAACUACAGAAAUGUAGUUGACGAGGAGGAGGUUUAUCGAUUUUUCGUCGGAUCCCUCCAAA [A53U G60U G66C] | < 1e-05 s⁻¹ |  |  | 
AUAAAAGCGCCAGAACUACAGAAAUGUAGUUGACGAGGAGGAGGUUUAUCGAUUUUUCGGCUGAUGCCUCCAAA [A53U G62U] | < 1e-05 s⁻¹ |  | < 1e-05 s⁻¹ | < 1e-05 s⁻¹
AUAAAAGCGCCAGAACUACAGAAAUGUAGUUGACGAGGAGGAGGUUUAUCGAUUUUUCGGCGUUUACCUCCAAA [A53U G63U A64U G66A] | < 1e-05 s⁻¹ |  | < 1e-05 s⁻¹ | 
AUAAAAGCGCCAGAACUACAGAAAUGUAGUUGACGAGGAGGAGGUUUAUCGAUUUAUCGGCGGAUGCCUCUAAA [A53U U56A C71U] | 0.00121 ± 0.00015 s⁻¹ |  | 0.00323 ± 0.00064 s⁻¹ | 

Variant | self-cleavage kobs at 640 uM GlcN6P (glucosamine-6-phosphate [1]) | self-cleavage kobs at 160 uM GlcN6P (glucosamine-6-phosphate [2]) | self-cleavage kobs at 2500 uM GlcN6P (glucosamine-6-phosphate [3]) | self-cleavage kobs at 10000 uM GlcN6P (glucosamine-6-phosphate [4])
AUAAAAGCGCCAGAACUACAGAAAUGUAGUUGACGAGGAGGAGGUUUAUCGAAAUUUCGGCGUAUGCCUCCAAA [U54A G63U] | < 1e-05 s⁻¹ |  |  | < 1e-05 s⁻¹
AUAAAAGCGCCAGAACUACAGAAAUGUAGUUGACGAGGAGGAGGUUUAUCGAACUUUCGGGGGAUGCCUCCAAA [U54C C61G] | < 1e-05 s⁻¹ |  | < 1e-05 s⁻¹ | 
AUAAAAGCGCCAGAACUACAGAAAUGUAGUUGACGAGGAGGAGGUUUAUCGAACUUUCGCCGGAUGCCUCGAAA [U54C G60C C71G] | < 1e-05 s⁻¹ |  | < 1e-05 s⁻¹ | 
AUAAAAGCGCCAGAACUACAGAAAUGUAGUUGACGAGGAGGAGGUUUAUCGAACUUUCGGCCGAGGCCGCCAAA [U54C G62C U65G U69G] | < 1e-05 s⁻¹ |  |  | 
AUAAAAGCGCCAGAACUACAGAAAUGUAGUUGACGAGGAGGAGGUUUAUCGAACUUUCGGCUGUUGCCUCCAAA [U54C G62U A64U] | < 1e-05 s⁻¹ | < 1e-05 s⁻¹ |  | 
AUAAAAGCGCCAGAACUACAGAAAUGUAGUUGACGAGGAGGAGGUUUAUCGAAGUUAGGGCGGAUGCAUCCAAA [U54G U57A C58G C68A] | 0.000592 ± 0.00015 s⁻¹ |  |  | 
AUAAAAGCGCCAGAACUACAGAAAUGUAGUUGACGAGGAGGAGGUUUAUCGAAUAUUCGGCGGACGCCUCCAAA [U55A U65C] | 0.0002 ± 2.9e-05 s⁻¹ | 7.83e-05 ± 1.4e-05 s⁻¹ | 0.000471 ± 6.1e-05 s⁻¹ | 
AUAAAAGCGCCAGAACUACAGAAAUGUAGUUGACGAGGAGGAGGUUUAUCGAAUCUUUGGCGGAUGCCUCGAAA [U55C C58U C71G] | < 1e-05 s⁻¹ | < 1e-05 s⁻¹ |  | 
AUAAAAGCGCCAGAACUACAGAAAUGUAGUUGACGAGGAGGAGGUUUAUCGAAUGUUCGCCGUAUGCCUCCAAA [U55G G60C G63U] | < 1e-05 s⁻¹ |  | < 1e-05 s⁻¹ | 
AUAAAAGCGCCAGAACUACAGAAAUGUAGUUGACGAGGAGGAGGUUUAUCGAAUGUUCGGCGGAUGCCGCCAAA [U55G U69G] | 8.9e-05 ± 1.9e-05 s⁻¹ | 8.02e-05 ± 1.9e-05 s⁻¹ |  | 6.23e-05 ± 1.7e-05 s⁻¹
AUAAAAGCGCCAGAACUACAGAAAUGUAGUUGACGAGGAGGAGGUUUAUCGAAUUAUGGGCGGAUGCCUCCAAA [U56A C58G] | 4.15e-05 ± 9.1e-06 s⁻¹ |  | 0.000121 ± 1.6e-05 s⁻¹ | 
AUAAAAGCGCCAGAACUACAGAAAUGUAGUUGACGAGGAGGAGGUUUAUCGAAUUAUCGGUGGGUGCCUCCAAA [U56A C61U A64G] | < 1e-05 s⁻¹ |  |  | 
AUAAAAGCGCCAGAACUACAGAAAUGUAGUUGACGAGGAGGAGGUUUAUCGAAUUAUCGGCGGAUGCCGCCAAA [U56A U69G] | 5.7e-05 ± 2e-05 s⁻¹ | 5.23e-05 ± 1e-05 s⁻¹ | 0.000127 ± 4.2e-05 s⁻¹ | 
AUAAAAGCGCCAGAACUACAGAAAUGUAGUUGACGAGGAGGAGGUUUAUCGAAUUCUCGGCGGAUGGCUCCAAA [U56C C67G] | < 1e-05 s⁻¹ | < 1e-05 s⁻¹ |  | < 1e-05 s⁻¹
AUAAAAGCGCCAGAACUACAGAAAUGUAGUUGACGAGGAGGAGGUUUAUCGAAUUCUCGGCGAAUGCCUCCAAA [U56C G63A] | < 1e-05 s⁻¹ |  |  | 
AUAAAAGCGCCAGAACUACAGAAAUGUAGUUGACGAGGAGGAGGUUUAUCGAAUUCGCGGCGGAUGCCUACAAA [U56C U57G C70A] | < 1e-05 s⁻¹ |  |  | 
